# Assay results published in PubChem BioAssay AID504332 (National Center for Advancing Translational Sciences (NCATS), 2011).
# Among all 350,000 compounds or so, about 31,000 (8.9%) were called active. Inconclusive means that the source gave no clear call. Such entries were picked first, then a sample of the others. Calls come from the whole dose curve; as a rule, active = well fitted inhibition curve with a large enough effect; inconclusive = small, poorly fitted or top-dose-only effect; inactive = no such curve, though single readings can be large or run the other way. Potencies of inconclusive entries are doubtful fits and often do not repeat.
# Target: Histone-lysine N-methyltransferase EHMT2 (Homo sapiens) (UniProt Q96KQ7)
# Chain of UniProt Q96KQ7 (Q96KQ7 whole entry, looked up): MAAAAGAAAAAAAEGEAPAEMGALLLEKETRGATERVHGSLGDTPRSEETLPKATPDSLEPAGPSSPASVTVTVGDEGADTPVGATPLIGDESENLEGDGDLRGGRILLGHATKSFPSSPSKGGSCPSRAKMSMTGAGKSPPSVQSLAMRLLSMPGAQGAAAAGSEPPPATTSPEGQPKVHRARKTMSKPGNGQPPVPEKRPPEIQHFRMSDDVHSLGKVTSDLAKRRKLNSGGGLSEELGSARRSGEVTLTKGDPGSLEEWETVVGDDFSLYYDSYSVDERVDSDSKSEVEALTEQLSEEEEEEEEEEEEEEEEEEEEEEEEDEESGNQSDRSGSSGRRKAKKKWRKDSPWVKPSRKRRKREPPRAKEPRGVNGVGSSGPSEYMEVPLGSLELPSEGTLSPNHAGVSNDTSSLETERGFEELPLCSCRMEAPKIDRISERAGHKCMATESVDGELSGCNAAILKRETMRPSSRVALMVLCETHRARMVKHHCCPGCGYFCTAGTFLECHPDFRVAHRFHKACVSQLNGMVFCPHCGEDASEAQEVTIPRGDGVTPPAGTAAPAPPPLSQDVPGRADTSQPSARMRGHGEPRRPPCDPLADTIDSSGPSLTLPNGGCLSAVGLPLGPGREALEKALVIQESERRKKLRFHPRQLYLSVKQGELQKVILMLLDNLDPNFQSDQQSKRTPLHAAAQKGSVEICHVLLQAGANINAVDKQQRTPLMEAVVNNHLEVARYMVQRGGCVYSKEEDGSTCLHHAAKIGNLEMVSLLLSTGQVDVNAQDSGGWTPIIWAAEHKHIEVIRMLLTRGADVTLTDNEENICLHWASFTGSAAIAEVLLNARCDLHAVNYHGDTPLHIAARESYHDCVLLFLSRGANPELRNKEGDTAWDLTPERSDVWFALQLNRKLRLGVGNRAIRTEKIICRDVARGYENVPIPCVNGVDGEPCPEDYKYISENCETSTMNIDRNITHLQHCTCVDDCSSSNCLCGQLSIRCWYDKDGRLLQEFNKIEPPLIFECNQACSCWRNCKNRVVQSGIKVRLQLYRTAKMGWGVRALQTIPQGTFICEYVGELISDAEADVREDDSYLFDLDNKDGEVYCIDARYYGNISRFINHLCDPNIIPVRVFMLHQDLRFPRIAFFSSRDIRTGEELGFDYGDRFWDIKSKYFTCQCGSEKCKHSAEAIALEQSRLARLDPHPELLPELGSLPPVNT
# Assay: qHTS Assay for Inhibitors of Histone Lysine Methyltransferase G9a; note: nearly all actives have a fitted effect of over 75% in size
# Settings: G9a H3K9 monomethylation, AlphaScreen, 2 h; activity, negative = inhibition: at 59 µM (top of the series) unless noted
# Procedure, shortened: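 Compounds were preincubated with 20 nM G9a for 15 min, after which biotinylated H3K9 peptide (500 nM) and SAM (20 uM) started a 2 h room-temperature reaction. Monomethylated product was quantified by antibody-based AlphaScreen chemiluminescence.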
# % is set by controls: 0 for no effect and ±100 for the full control effect; potency is the fitted concentration of half-maximal effect; tags give direction and shape of the fitted curve.
SMILES,Potency,"activity, negative = inhibition"
O=C(COC(=O)c1nc(Cl)ccc1Cl)c1ccc[nH]1,inactive,
Cc1ccc(NC(=O)CCNS(=O)(=O)c2ccc3[nH]c(=O)oc3c2)cc1F,inactive,
CC1=Nc2ccccc2N=C(NC(=O)c2ccccc2)C1c1ccccc1 (stereo unspecified),"inconclusive: 35.5 µM [inhibitor, partial curve]",
O=C1COc2ccc(C(=O)COC(=O)c3nc(Cl)ccc3Cl)cc2N1,"inconclusive: 56.2 µM [inhibitor, partial curve, poor fit]",
Cc1ccc(Cl)cc1N1CCN(C(=O)CSc2nnc3n2C(C)(C)Cc2ccccc2-3)CC1,active: 8.91 µM,
COc1ccc(-c2cc(-c3ccccc3)nc(SCC(=O)Nc3ncc(C)s3)c2C#N)cc1,"inconclusive: 7.94 µM [inhibitor, full curve]",
Cc1ccc(S(=O)(=O)N2CCCCC2)cc1C(=O)NCCCN1CCOCC1,inactive,
Cc1nnc(SCC(=O)Nc2cc(S(C)(=O)=O)ccc2Cl)n1Cc1ccccc1,inactive,
Cn1c(=O)n(CC(=O)O)c(=O)c2c1nc1n2CCS1,"inconclusive: 79.4 µM [inhibitor, partial curve, poor fit]",
COc1cc(NC(=O)CN(C)Cc2ccc(OC(F)F)cc2)c(C)cc1[N+](=O)[O-],"inconclusive: 70.8 µM [inhibitor, partial curve, poor fit]",
O=C(Nc1cccc(F)c1)C1CCCN(C(=O)c2ccc(Cl)cc2)C1 (stereo unspecified),inactive,
Cc1nn(CCCC(=O)Nc2ccccc2C(F)(F)F)c(=O)c2c1sc1ccccc12,"inconclusive: 22.4 µM [inhibitor, partial curve, poor fit]",
COc1cc(OC)cc(C(=O)NNC(=O)CCc2nc3ccccc3c(=O)[nH]2)c1,"inconclusive: 11.2 µM [inhibitor, single point]",
Cc1cccnc1NC(=O)CSc1nnc(CNC(=O)c2cccc([N+](=O)[O-])c2)n1C,inactive,
Cc1ccc(-c2c[n+](Cc3ccc(Cl)cc3)c3n2CCC3)cc1,inactive,
Cc1ccc(Cn2ccc(NC(=O)c3noc4c3CCCC4)n2)cc1,"inconclusive: 70.8 µM [inhibitor, partial curve, poor fit]",
Cc1ccc(S(=O)(=O)N(CC(=O)N2CCOCC2)CC(=O)N2CCOCC2)cc1,inactive,
CCCCNC(=O)c1onc(CSc2nc3ccccc3[nH]2)c1C(=O)NCCCC,active: 70.8 µM,
CN(C)c1ccc(NC(=O)c2cccc(N3C(=O)C4C5C=CC(C5)C4C3=O)c2)cc1 (stereo unspecified),active: 10 µM,
O=[N+]([O-])c1ccccc1CCc1cnc(Cl)s1,inactive,
CCCCCCCCCCCC[n+]1ccc2ccccc2c1,"inconclusive: 2.82 µM [inhibitor, partial curve, poor fit]",
Cc1ccc(-c2cn(S(=O)(=O)c3cccc4nsnc34)nc2N)cc1,"inconclusive: 22.4 µM [inhibitor, single point]",
N#Cc1cn(CCOc2ccccc2F)c2ccccc12,inactive,

SMILES,Potency,"activity, negative = inhibition"
CCN(C(=O)CSc1nnc(-c2ccc(C)cc2)n1N)c1c(N)n(Cc2ccccc2)c(=O)[nH]c1=O,"inconclusive: 89.1 µM [inhibitor, partial curve, poor fit]",
O=C(CSc1nnc(Cc2cccs2)n1-c1ccc(Cl)cc1)NCc1ccc2c(c1)OCO2,active: 50.1 µM,
CCn1c(SCC(=O)NCc2ccco2)nnc1-c1cccs1,"inconclusive: 39.8 µM [inhibitor, single point]",
CCN1CCN(C(c2cccnc2)c2c(NC(=O)c3ccco3)sc(C)c2C)CC1 (stereo unspecified),"inconclusive: 39.8 µM [inhibitor, single point]",
NC1=NC(=O)/C(=C\c2ccc(-c3ccc(Cl)cc3)o2)S1,"inconclusive: 89.1 µM [inhibitor, single point]",
Cc1ccc(NC(=O)Cn2c(=O)n(CCCC(=O)NCc3ccco3)c(=O)c3ccccc32)cc1,"inconclusive: 11.2 µM [inhibitor, partial curve, poor fit]",
CC(C(=O)N1CCN(C(=O)c2ccco2)CC1)N1C(=O)NC2(CCCCC2C)C1=O (stereo unspecified),"inconclusive: 0.398 µM [inhibitor, partial curve, poor fit]",
Cc1cc(=O)n2[nH]c(N)c(N=Nc3ccccc3)c2n1,inactive,
C/C(=N\Nc1nc(N2CCCCC2)nc(N2CCOCC2)n1)c1ccccc1O,inactive,
Cc1ccc(S(=O)(=O)NCCCCCC(=O)Nc2ccccn2)cc1,"inconclusive: 22.4 µM [inhibitor, partial curve, poor fit]",
COc1ccc(C(CCNCc2ccc(OC(C)C)cc2)C(C)C)cc1 (stereo unspecified),inactive,
O=C(NCCO)C(=O)Nc1c2c(nn1-c1ccc(F)cc1)CSC2,"inconclusive: 39.8 µM [inhibitor, single point]",
O=C(Nc1ccccc1N1CCCC1)C1CCCO1 (stereo unspecified),active: 28.2 µM,
COc1ccc(C)cc1Cn1c(S(C)(=O)=O)nc2ccccc21,"inconclusive: 10 µM [inhibitor, partial curve, poor fit]",
Cn1cc(Br)c(C(=O)n2cc(Br)cn2)n1,inactive,
COc1cccc(NC(=O)Nc2cc(-c3cn4cccnc4n3)ccc2C)c1,"inconclusive: 28.2 µM [inhibitor, partial curve, poor fit]",
CCCCN1Cc2c(nc3cc(-c4ccco4)[nH]n3c2=O)C1=O,"inconclusive: 56.2 µM [inhibitor, partial curve, poor fit]",
CC(C)OCCCN(Cc1ccco1)C(=O)c1cc2c(s1)-c1ccccc1OC2,inactive,
CCN(CC)C(=O)Cn1cc(SCC(=O)Nc2cccc(C)c2)c2ccccc21,inactive,
O=C(C[n+]1ccc2c(c1)nnn2-c1ccccc1)c1ccc(Cl)cc1,"inconclusive: 89.1 µM [inhibitor, single point]",
COC(=O)C(C)Sc1ncnc2c1nnn2-c1ccc(F)cc1 (stereo unspecified),inactive,
CN(C)c1ccc(C(=O)N2CCCC(CCC(=O)N3CCN(c4ccccn4)CC3)C2)cc1 (stereo unspecified),"inconclusive: 89.1 µM [inhibitor, single point]",
O=C(Nc1ccccn1)c1ccc2ccccc2n1,,inconclusive: -64.7% [inhibitor]
